Measurements taken from the supplement of paper PMC4604168 (melanoma cell lines).
This is one part of the list. Most values come without repeats; read them as rough.

Key:
Experiment in all cases: cell count relative to DMSO control; melanoma cells; higher = more viable cells
Details in all cases: library dose: low library concentration; 72 h; first compound 0.4 µM
[1] = test system: WM115
[2] = test system: WM1716
[3] = test system: WM1745
[4] = test system: WM3526
[5] = test system: WM3619
[6] = test system: WM451Lu
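Further: cell number obtained by counting DAPI-stained nuclei in high-throughput microscope images with image analysis software, screen run in 1,536-well plates.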

Row | SMILES | cell count [1] [%] | cell count [2] [%] | cell count [3] [%] | cell count [4] [%] | cell count [5] [%] | cell count [6] [%]
1 | CCCCCCCCCCCCCCCCCCOP(=O)([O-])OC1CC[N+](C)(C)CC1 [Perifosine] + CCCS(=O)(=O)Nc1ccc(F)c(C(=O)c2c[nH]c3ncc(Cl)cc23)c1F [PLX4720] (partner dose 0.08 µM) | 106 | 112 | 126 | 110 | 119 | 108
2 | CCCCCCCCCCCCCCCCCCOP(=O)([O-])OC1CC[N+](C)(C)CC1 [Perifosine] + C#Cc1cccc(Nc2ncnc3cc(OCCOC)c(OCCOC)cc23)c1 [erlotinib] (partner dose 0.8 µM) | 85.6 | 88.6 | 89.1 | 98.9 | 85.7 | 95.9
3 | C[C@@H](N)c1ccc(C(=O)Nc2ccnc3[nH]ccc23)cc1 + COc1ccc(-c2ccc3c(N4CCOCC4)nc(N4C[C@@H](C)O[C@@H](C)C4)nc3n2)cc1CO [KU0063794] (partner dose 0.02 µM) | 110 | 53.2 | 70.4 | 101 | 89.4 | 94.7
4 | Cn1sc(=O)n(Cc2ccccc2)c1=O + CN(NC(=O)CC(=O)NN(C)C(=S)c1ccccc1)C(=S)c1ccccc1 [STA4783] (partner dose 0.006 µM) | 83.8 | 60.8 | 31.1 | 84.2 | 66.3 | 80.8
5 | Cn1sc(=O)n(Cc2ccccc2)c1=O + Cc1cc(Nc2cc(N3CCN(C)CC3)nc(/C=C/c3ccccc3)n2)n[nH]1 [ENMD2076] (partner dose 0.04 µM) | 102 | 96.3 | 118 | 92.4 | 90.3 | 93.7
6 | CCCCCCCCCCCCCCCCCCOP(=O)([O-])OC1CC[N+](C)(C)CC1 [Perifosine] + C[C@@H](N)c1ccc(C(=O)Nc2ccnc3[nH]ccc23)cc1 [RKI983] (partner dose 0.4 µM) | 123 | 79.3 | 92.1 | 93.1 | 85 | 94.9
7 | Cn1sc(=O)n(Cc2ccccc2)c1=O + O=C(Nc1ccccc1)c1cc([N+](=O)[O-])ccc1Cl [GW9662] (partner dose 2 µM) | 101 | 110 | 98.7 | 96.8 | 87.8 | 101
8 | C[C@@H](N)c1ccc(C(=O)Nc2ccnc3[nH]ccc23)cc1 + Cn1c(Nc2ccc(C(F)(F)F)cc2)nc2cc(Oc3ccnc(-c4ncc(C(F)(F)F)[nH]4)c3)ccc21 [CHIR265] (partner dose 0.08 µM) | 80.2 | 63.7 | 53.8 | 66.4 | 78.2 | 107
9 | C[C@@H](N)c1ccc(C(=O)Nc2ccnc3[nH]ccc23)cc1 + Nc1ncn([C@H]2C[C@H](O)[C@@H](CO)O2)c(=O)n1 [decitabine] (partner dose 0.1 µM) | 87.1 | 54.2 | 83.3 | 105 | 95.2 | 90.1
10 | Cn1sc(=O)n(Cc2ccccc2)c1=O + c1cc(-c2cnn3cc(-c4ccc(OCCN5CCCCC5)cc4)cnc23)ccn1 [Dorsomorphin] (partner dose 0.4 µM) | 99.1 | 97.4 | 79.2 | 92.1 | 115 | 87.8
11 | Cn1sc(=O)n(Cc2ccccc2)c1=O + C[C@@H]1CCN(C(=O)CC#N)C[C@@H]1N(C)c1ncnc2[nH]ccc12 [CP690550] (partner dose 1 µM) | 99 | 108 | 97.4 | 97.4 | 122 | 122
12 | Cn1sc(=O)n(Cc2ccccc2)c1=O + Cc1cc([N+](=O)[O-])ccc1NS(=O)(=O)c1cc(Cl)ccc1Cl [FH535] (partner dose 1 µM) | 85.8 | 84.9 | 104 | 99.1 | 83.4 | 93.4
13 | Cn1sc(=O)n(Cc2ccccc2)c1=O + Cn1cc(/C=C2\C(=O)Nc3cccnc32)c2ccccc21 [GW441756] (partner dose 0.4 µM) | 96.5 | 92.9 | 115 | 91.9 | 92.3 | 110
14 | CCCCCCCCCCCCCCCCCCOP(=O)([O-])OC1CC[N+](C)(C)CC1 [Perifosine] + COc1ccc2c(c1)CCC1C2CCC2(C)C(NCCCCCCN3C(=O)C=CC3=O)CCC12 [U73122] (partner dose 0.4 µM) | 91.2 | 93.8 | 96.4 | 88.1 | 110 | 130
15 | C[C@@H](N)c1ccc(C(=O)Nc2ccnc3[nH]ccc23)cc1 + COCC[n+]1c2c(n(Cc3cnccn3)c1C)C(=O)c1ccccc1C2=O [YM155] (partner dose 0.0004 µM) | 107 | 75 | 81.4 | 129 | 143 | 74.1
16 | C[C@@H](N)c1ccc(C(=O)Nc2ccnc3[nH]ccc23)cc1 + Nc1ccn([C@@H]2O[C@H](CO)[C@@H](O)C2(F)F)c(=O)n1 [gemcitabine] (partner dose 0.0004 µM) | 103 | 72 | 71.4 | 115 | 71.2 | 118

Row | SMILES | cell count [1] [%] | cell count [2] [%] | cell count [3] [%] | cell count [4] [%] | cell count [5] [%] | cell count [6] [%]
17 | Cn1sc(=O)n(Cc2ccccc2)c1=O + NC(=O)c1ccc(N(C(N)=O)c2c(F)cccc2F)nc1-c1ccc(F)cc1F [VX702] (partner dose 0.4 µM) | 97.1 | 106 | 89.5 | 90.9 | 109 | 86.6
18 | Cn1sc(=O)n(Cc2ccccc2)c1=O + Cc1ccc(NC(=O)c2cccc(N(C)C)c2)cc1NC(=O)c1ccc(O)cc1 [ZM336372] (partner dose 2 µM) | 90.9 | 115 | 91.1 | 96.4 | 89.4 | 96.5
19 | C[C@@H](N)c1ccc(C(=O)Nc2ccnc3[nH]ccc23)cc1 + COc1cc(Nc2ncc(F)c(Nc3ccc4c(n3)NC(=O)C(C)(C)O4)n2)cc(OC)c1OC [Tamatinib] (partner dose 0.4 µM) | 89.4 | 64.3 | 35.9 | 80.5 | 174 | 66.9
20 | CCCCCCCCCCCCCCCCCCOP(=O)([O-])OC1CC[N+](C)(C)CC1 [Perifosine] + Cc1cc(Nc2cc(N3CCN(C)CC3)nc(/C=C/c3ccccc3)n2)n[nH]1 [ENMD2076] (partner dose 0.04 µM) | 90.3 | 104 | 119 | 91.9 | 86.1 | 112
21 | C[C@@H](N)c1ccc(C(=O)Nc2ccnc3[nH]ccc23)cc1 + O=C(O)C(=O)Nc1sc2c(c1C(=O)O)CCNC2 [TCS401] (partner dose 1.66667 µM) | 108 | 75.7 | 77.9 | 95.4 | 99.5 | 111
22 | CCCCCCCCCCCCCCCCCCOP(=O)([O-])OC1CC[N+](C)(C)CC1 [Perifosine] + COCC[n+]1c2c(n(Cc3cnccn3)c1C)C(=O)c1ccccc1C2=O [YM155] (partner dose 0.0004 µM) | 103 | 78.6 | 113 | 101 | 86 | 57.2
23 | Cn1sc(=O)n(Cc2ccccc2)c1=O + OCc1c[nH]c2ccccc12 [Indole-3-carbinol] (partner dose 0.8 µM) | 105 | 114 | 100 | 93.7 | 77.8 | 108
24 | C[C@@H](N)c1ccc(C(=O)Nc2ccnc3[nH]ccc23)cc1 + CCCCCCCCc1ccc(CCC(N)(CO)CO)cc1 [fingolimod] (partner dose 2 µM) | 109 | 71.8 | 72.6 | 103 | 98 | 99.4
25 | Cn1sc(=O)n(Cc2ccccc2)c1=O + CN(C)S(=O)(=O)c1ccc2c(c1)/C(=C/c1cc3c([nH]1)CCCC3)C(=O)N2 [SU6656] (partner dose 0.4 µM) | 62.6 | 92.7 | 88 | 90.2 | 94.7 | 83.5
26 | C[C@@H](N)c1ccc(C(=O)Nc2ccnc3[nH]ccc23)cc1 + O=C(CCCCCCC(=O)Nc1ccccc1)NO [vorinostat] (partner dose 0.08 µM) | 128 | 69.9 | 97.8 | 107 | 92.3 | 79.2
27 | CCCCCCCCCCCCCCCCCCOP(=O)([O-])OC1CC[N+](C)(C)CC1 [Perifosine] + CNC(=O)c1cc(Oc2ccc(NC(=O)Nc3ccc(Cl)c(C(F)(F)F)c3)cc2)ccn1 [sorafenib] (partner dose 0.4 µM) | 90.8 | 101 | 90.7 | 103 | 93.8 | 107
28 | CCCCCCCCCCCCCCCCCCOP(=O)([O-])OC1CC[N+](C)(C)CC1 [Perifosine] + CN1CCN(c2ccc3nc(-c4c(N)c5c(F)cccc5[nH]c4=O)[nH]c3c2)CC1 [Dovitinib] (partner dose 0.1 µM) | 102 | 99.5 | 90 | 96.8 | 73.2 | 110
29 | CCCCCCCCCCCCCCCCCCOP(=O)([O-])OC1CC[N+](C)(C)CC1 [Perifosine] + CCCCCCCCc1ccc(CCC(N)(CO)CO)cc1 [fingolimod] (partner dose 2 µM) | 106 | 85.8 | 94.3 | 89 | 101 | 96.8
30 | Cn1sc(=O)n(Cc2ccccc2)c1=O + COc1cc2c(Oc3ccc4[nH]c(C)cc4c3F)ncnc2cc1OCCCN1CCCC1 [cediranib] (partner dose 0.4 µM) | 94.5 | 112 | 78.2 | 90.2 | 95.6 | 97
31 | Cn1sc(=O)n(Cc2ccccc2)c1=O + O=C(O)c1ccc2c(c1)nc(Nc1cccc(Cl)c1)c1ccncc12 [CX4945] (partner dose 0.4 µM) | 99 | 82.5 | 90.5 | 107 | 71.7 | 89.6
